# The campaign covered roughly 410,000 compounds. About 6,400 (1.6%) were called active. Inconclusive results, whose numbers are uncertain, are shown with a selection of clear calls. Calls come from the whole dose curve; as a rule, active = well fitted inhibition curve with a large enough effect; inconclusive = small, poorly fitted or top-dose-only effect; inactive = no such curve, though single readings can be large or run the other way. Potencies of inconclusive entries are left out as doubtful fits.
# Molecular target: Glucagon-like peptide 1 receptor (Homo sapiens) (UniProt P43220)
# Test: qHTS of GLP-1 Receptor Inverse Agonists (Inhibition Mode); note: nearly all actives have a fitted effect of over 55% in size
# Conditions: HEK293 GLP-1R CRE-luciferase, luminescence, 24 h, GLP-1R form is constitutively active; activity change, negative = inhibition: at 38.3 µM (top of the series) unless noted
# Method in brief: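 Seeding at 200 cells/uL, 12 h culture, 24 hr compound treatment, then luciferase reagent and a luminescence read; cells are HEK293 stably expressing a constitutively active GLP-1R plus cAMP-responsive luciferase.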
# % is set by controls: 0 for no effect and ±100 for the full control effect; potency is the fitted concentration of half-maximal effect; tags give direction and shape of the fitted curve.
# Sequence of UniProt P43220 (P43220 whole entry, looked up): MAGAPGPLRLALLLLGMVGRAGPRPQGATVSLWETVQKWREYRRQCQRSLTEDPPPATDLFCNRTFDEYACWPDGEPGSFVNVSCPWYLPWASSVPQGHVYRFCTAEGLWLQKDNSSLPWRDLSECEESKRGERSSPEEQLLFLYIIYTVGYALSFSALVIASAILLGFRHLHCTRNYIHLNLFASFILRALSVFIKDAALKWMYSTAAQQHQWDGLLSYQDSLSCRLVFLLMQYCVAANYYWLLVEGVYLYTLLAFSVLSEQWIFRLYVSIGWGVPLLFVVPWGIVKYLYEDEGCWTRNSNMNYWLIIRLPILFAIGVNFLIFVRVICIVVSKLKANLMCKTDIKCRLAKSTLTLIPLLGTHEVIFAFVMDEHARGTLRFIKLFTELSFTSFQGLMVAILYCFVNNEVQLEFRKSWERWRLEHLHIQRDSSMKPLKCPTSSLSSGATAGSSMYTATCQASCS
Structure (SMILES),Potency,"activity change, negative = inhibition"
CCOC(=O)N1CCN(Cc2nc3cc(NC(=O)c4ccccc4[N+](=O)[O-])ccc3n2C(C)C)CC1,"inconclusive [inhibitor, partial curve, poor fit]",
O=S(=O)(Nc1nc(SCc2ccc(Cl)cc2)n[nH]1)c1ccc(F)cc1,"inconclusive [inhibitor, single point]",
N#CC1=C(c2ccccc2)/C(=C/c2ccccc2)OC1=O,"inconclusive [inhibitor, full curve, poor fit]",
CCC1CCC2(CC1)NC(=O)N(CC(=O)c1c(C)[nH]c3ccccc13)C2=O (configuration not stated),"inconclusive [inhibitor, single point]",
CCc1cccc(C)c1Nc1c(-c2ccccc2)nc2sccn12,"inconclusive [inhibitor, partial curve, poor fit]",
COc1cc(CNc2ccc(N3CCCC3)cc2)ccc1OCc1ccccc1F,,inactive: -0.0714%
O=[N+]([O-])c1cccc(-c2csc(N/N=C/c3cccc(O)c3)n2)c1,"inconclusive [inhibitor, single point]",
Fc1ccc(CNc2ncnc3onc(-c4ccc(F)cc4)c23)cc1,,inactive: 12.8%
Cc1cccc(N2CCN(Cc3ccc(Br)o3)CC2)c1C,"inconclusive [inhibitor, single point]",
O=S(=O)(c1ccc(Br)cc1Cl)N1CCCN(c2ccc(C(F)(F)F)cn2)CC1,"inconclusive [inhibitor, partial curve, poor fit]",
CCOc1ccc(NC(=O)Nc2cccn(Cc3ccccc3)c2=O)cc1,"inconclusive [inhibitor, partial curve, poor fit]",
CC1CCc2nn(CC(=O)NCc3ccc4c(c3)OCO4)cc2C1 (configuration not stated),"inconclusive [inhibitor, partial curve, poor fit]",
COc1ccc(/C=C/C(=O)OCC(=O)NCCc2ccccc2)c(OC)c1,"inconclusive [inhibitor, partial curve, poor fit]",
CCN(c1ccccc1)S(=O)(=O)c1ccc(C(=O)NCCc2ccc(S(N)(=O)=O)cc2)cc1,"inconclusive [inhibitor, partial curve, poor fit]",
CC(C)Oc1cc(F)ccc1-c1cc(C(=O)Nc2cccc(Cl)c2)[nH]n1,"inconclusive [inhibitor, single point]",
CCOC(=O)CC1NCCc2c1[nH]c1ccc(OC)cc21 (configuration not stated),"inconclusive [inhibitor, single point]",
O=C(C1COc2ccccc2O1)N1CCN(c2nc3ccc(F)cc3s2)CC1 (configuration not stated),"inconclusive [inhibitor, single point]",

# — PubChem BioAssay AID624417 (National Center for Advancing Translational Sciences (NCATS), 2012)
